# Measurements reported in the supplement of paper PMC12217912.
# This is one part of the list. Sequences were assembled here from the parent chain. Inactive controls read about 0.05.
# B1: TEV protease; numbered along this chain (parent)
# chain: MGESLFKGPRDYNPISSSICHLTNESDGHTTSLYGIGFGPFIITNKHLFRRNNGTLVVQSLHGVFKVKDTTTLQQHLVDGRDMIIIRMPKDFPPFPQKLKFREPQREERICLVTTNFQTKSMSSMVSDTSCTFPSGDGIFWKHWIQTKDGQCGSPLVSTRDGFIVGIHSASNFTNTNNYFTSVPKNFMELLTNQEAQQWVSGWRLNADSVLWGGHKVFMVKPEEPFQPVKEATQL
# Variants of: B1
# Assay: raw area under fraction-flipped curve 0-4 h after induction (AUC4h, not background-subtracted), DNA-recorder readout of cleavage of the substrate (dimensionless); higher = more cleavage of the substrate by the protease variant
# Details: temperature: 34 °C; time window: 0-4 h after rhamnose induction
# Protocol: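 In vivo DNA recorder in E. coli TOP10(DE3) ΔrhaA at 34 °C. Each TEVp single-site mutant (parent TEVp 0) is paired with a single-site variant of the 7-mer TEVs (canonical ENLYFQ|S). The substrate sits between flexible linkers in a Bxb1-sfGFP-TEVs-SsrA fusion, so cleavage stabilises Bxb1 and speeds flipping of a recombination array, read by NGS. The value is the raw area under the fraction-flipped curve over 0-4 h after rhamnose induction (AUC4h), with ≥20 reads per time point. It is not background-subtracted; inactive controls average about 0.047.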
# 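Also: Bxb1 expression induced with 0.2% (w/v) L-rhamnose at OD600 near 0.5, cultures sampled hourly, flipped fraction per protease–substrate barcode pair counted by paired-end Illumina sequencing.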
Variant,area with substrate ANLYFQS,area with substrate CNLYFQS,area with substrate DNLYFQS,area with substrate HNLYFQS,area with substrate INLYFQS,area with substrate LNLYFQS,area with substrate SNLYFQS,area with substrate TNLYFQS,area with substrate WNLYFQS,area with substrate YNLYFQS,area with substrate FNLYFQS,area with substrate GNLYFQS,area with substrate KNLYFQS,area with substrate NNLYFQS,area with substrate PNLYFQS,area with substrate RNLYFQS,area with substrate VNLYFQS,area with substrate MNLYFQS,area with substrate QNLYFQS
L112F,0.0623,0.061,0.0701,0.0644,0.0599,0.0442,0.0513,0.0542,0.0612,0.0567,–,–,–,–,–,–,–,–,–
L112H,0.0573,0.0652,–,0.0519,0.0521,0.0599,–,0.06,0.0625,0.0445,0.0598,0.0511,0.0648,0.0579,0.0569,0.0467,0.076,–,–
L112I,0.0318,0.0446,–,0.0617,0.0584,0.0452,0.0495,0.0666,0.0586,0.0702,0.0386,–,0.0415,0.0896,0.0861,0.0599,0.0667,0.0874,–
L112N,0.0642,0.0832,–,0.0566,–,0.0592,0.0661,0.0663,0.0602,0.0529,0.0472,0.0634,–,–,0.0611,–,0.0749,0.0584,–
L112W,0.0502,0.0318,–,0.0623,0.0558,0.045,–,0.0631,0.0502,–,0.0663,0.0418,0.0672,0.0596,0.0564,–,0.067,–,–
F117N,0.0655,0.0772,0.0849,0.0629,–,0.0638,0.0554,–,0.0592,–,–,–,–,0.0411,0.0649,–,–,0.0696,–
K120H,0.0736,–,0.0867,–,–,0.0481,0.0679,–,–,–,–,0.0665,–,–,–,–,–,0.0652,0.0643
D128C,0.0723,0.0864,0.101,0.0815,0.0521,0.0633,0.0899,0.0784,0.058,0.0487,0.061,0.12,0.0617,0.0635,0.0568,–,0.0841,0.013,–
D128F,0.0995,–,–,0.0813,–,0.0575,0.0818,0.0716,0.0608,0.0936,–,–,0.0925,0.0923,0.1,–,–,0.071,–
D128K,0.0457,–,0.0857,0.0416,–,–,–,–,–,–,0.0486,0.0679,–,0.0439,0.0669,–,–,0.0646,–
D128M,0.078,0.0864,0.0407,0.0838,0.0892,0.0873,0.0831,0.0907,0.0441,0.0729,–,0.0947,0.0675,0.115,0.0799,–,0.076,0.0537,–
P134H,0.0752,0.0506,0.0681,0.0603,0.072,0.0625,0.0756,0.062,0.0574,–,0.0596,–,0.0669,0.0682,0.06,–,0.0724,0.0572,–
G136W,0.0707,–,–,0.0578,0.066,0.0591,0.0494,0.0625,0.0573,0.0597,–,0.0619,0.0838,–,–,–,0.0537,0.0449,0.0709
F140R,0.0796,0.0579,0.0701,0.0599,0.0577,0.0662,0.0591,0.0748,0.0517,0.0585,0.0388,0.0591,0.066,0.0665,0.0666,0.0629,0.0602,0.0663,–
K142G,0.0642,0.0546,0.0708,0.0685,0.0678,0.0675,0.0645,0.0619,0.0656,0.0659,0.0543,0.0758,0.0702,0.0729,0.0467,0.0685,–,0.0651,–
W144C,0.0696,–,0.0745,0.0677,0.0677,–,0.0617,0.0677,0.0457,0.0686,–,0.0693,–,0.066,0.0772,0.0741,–,0.0675,–
W144M,0.0666,0.0766,0.0838,0.0681,–,0.0614,–,0.0774,0.0631,–,0.0605,0.0685,0.0593,–,0.0643,–,–,–,0.0805
W144R,0.0609,0.0732,0.0636,0.0681,–,0.0662,–,0.0815,0.0518,0.0668,0.0581,–,0.058,–,0.0683,–,–,–,–
W144S,0.0737,0.065,0.065,0.046,0.0716,0.0608,0.0493,0.0668,0.0554,0.0802,–,–,0.0646,0.0656,0.0762,–,0.0587,0.059,–
W144Y,0.0652,0.073,0.0631,0.0715,0.063,0.0706,0.0649,0.0586,0.0565,0.0761,0.067,–,0.0574,0.054,0.0654,0.0651,0.0755,0.083,0.082
K148A,0.0859,0.0728,0.0702,0.0568,0.067,0.0765,0.0577,0.0611,0.0574,0.0638,0.0689,–,–,0.0612,0.0677,0.0545,–,0.065,–
D149M,0.0532,0.0717,0.0725,0.0606,0.0791,0.0538,0.0655,0.0565,0.0568,0.0527,0.0861,–,–,–,0.0611,–,0.0597,0.0376,0.0638
G150E,0.0628,0.074,0.061,0.056,0.0546,–,0.0518,0.0489,0.0244,0.0723,0.0576,–,0.0696,0.058,0.0665,0.0642,0.0687,0.06,–
G150W,0.0602,0.0586,0.0598,0.0597,0.0625,0.0587,0.0773,0.0574,0.0555,0.0786,0.0508,0.0624,0.0611,0.0562,0.0582,0.0544,0.0419,0.0602,–
C152A,0.0599,0.0727,0.0248,0.0635,–,–,0.0528,0.0646,–,0.0517,0.0426,0.0538,0.0282,0.0348,0.0558,–,0.064,–,–
